Experimental data from PubChem BioAssay AID488969 (Vanderbilt High Throughput Screening Facility, 2010).
Whole data set: some 110,000 compounds, median “z-score” near -0.1, cut for the highest 2% near 2. This is one part of the list. Activity calls are given as the source filed them.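 How the source made its calls: active means z-score in the third read window above 3 or below -3; inactive means the rest.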

The compounds below were run against Metabotropic glutamate receptor 8 (Rattus norvegicus) (UniProt P70579) (assay: rat mGluR8 modulators via GIRK flux, primary screen, cell-based, thallium flux, HTS (AID 488969)). Conditions: HEK293 rat mGluR8, GIRK (G protein-gated inwardly rectifying potassium channel) thallium flux, FluoZin2; at 10 µM; stronger effect = higher value; submaximal glutamate (EC20) added with thallium.
Chain of UniProt P70579 (P70579 whole entry, looked up): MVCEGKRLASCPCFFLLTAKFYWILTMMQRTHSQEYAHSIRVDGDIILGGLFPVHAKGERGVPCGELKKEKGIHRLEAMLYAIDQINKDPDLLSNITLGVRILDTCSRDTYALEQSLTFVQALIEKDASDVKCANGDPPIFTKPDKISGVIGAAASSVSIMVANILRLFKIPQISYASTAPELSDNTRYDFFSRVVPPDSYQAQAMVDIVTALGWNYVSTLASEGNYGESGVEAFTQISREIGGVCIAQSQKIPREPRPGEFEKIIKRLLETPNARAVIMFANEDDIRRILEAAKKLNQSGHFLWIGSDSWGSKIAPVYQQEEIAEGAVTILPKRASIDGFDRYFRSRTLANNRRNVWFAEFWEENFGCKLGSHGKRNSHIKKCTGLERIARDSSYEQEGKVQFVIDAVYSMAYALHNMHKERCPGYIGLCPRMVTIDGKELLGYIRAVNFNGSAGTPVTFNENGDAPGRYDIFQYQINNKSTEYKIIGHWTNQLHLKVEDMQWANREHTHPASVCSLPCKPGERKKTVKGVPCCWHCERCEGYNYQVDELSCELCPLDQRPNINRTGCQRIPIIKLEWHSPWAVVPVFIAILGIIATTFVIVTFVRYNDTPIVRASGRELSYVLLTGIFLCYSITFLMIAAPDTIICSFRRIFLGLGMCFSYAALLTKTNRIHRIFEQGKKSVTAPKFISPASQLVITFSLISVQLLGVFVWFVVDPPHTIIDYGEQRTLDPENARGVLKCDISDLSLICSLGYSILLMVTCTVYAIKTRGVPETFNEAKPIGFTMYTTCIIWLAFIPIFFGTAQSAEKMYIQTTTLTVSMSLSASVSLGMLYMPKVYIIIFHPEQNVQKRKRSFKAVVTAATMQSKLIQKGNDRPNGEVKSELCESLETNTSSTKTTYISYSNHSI

Compound	z-score
CC(=O)c1cccc(S(=O)(=O)N2CCC(n3nnc4cc(F)ccc43)CC2)c1	0.0157
Cc1nn(CC(=O)NCCc2ccc(Cl)cc2)c(C)c1[N+](=O)[O-]	-0.0447
Clc1ccc2nc(N3CCN(c4ccccc4)CC3)sc2c1	0.0118
Cc1ccc(C)c(N2C(=O)CS/C2=N\NC(=O)c2ccccc2Cl)c1	-0.125
Cc1cc(C)c(C#N)c(SC(F)F)n1	-0.254
CCC(C)NS(=O)(=O)c1ccc(OCC(=O)N2CCC(C)CC2)cc1 (centres undefined)	-0.31
CC(NC(=O)/C=C/c1ccco1)c1nc2ccccc2n1Cc1ccccc1F (centres undefined)	-0.166
CN(C)/C=C(/C(=O)c1ccccc1Cl)S(=O)(=O)c1ccccc1	-0.17
CC(C)NC(=O)CC(=O)N/N=C/c1ccc(F)cc1	0.401
O=C(N1CCCCCC1)N1CCN(C(=O)N2CCOCC2)CC1	1.56
O=C(CNC(=O)c1cccc(OC(F)F)c1)OCc1cc(=O)n2cc(Br)ccc2n1	-0.323
CSc1nc(Oc2ccc(=O)n(C)n2)nc(N(C)C)n1	0.0793
CN(C)CCNC(=O)/C(=C/c1cccc([N+](=O)[O-])c1)NC(=O)c1ccccc1	0.133
Cc1ccc(C(=O)NC2CCCCCC2)o1	-0.461
COc1ccc(Nc2ncc(C(=O)N3CCN(c4ccc(F)cc4)CC3)c3ccccc23)cc1	-0.169
Cc1ccsc1C(=O)OCC(=O)c1cc2ccccc2o1	0.678
Cc1ccnc(N2CCCC(C(=O)Nc3cc(F)ccc3C)C2)n1 (centres undefined)	0.469
S=C1NCCc2ccc(Cl)cc2C1c1ccccc1 (centres undefined)	-0.00171
CCOc1ccc(CNCc2cccnc2)cc1	0.0145
CCN1CCN(C(=O)CCc2nc3ccccc3c(=O)[nH]2)CC1	-0.0416
O=C(CSc1ncnc2c1nnn2-c1ccc(F)cc1)NCC1CCCO1 (centres undefined)	0.335
Cc1ccc(S(=O)(=O)N2CCOCC2)cc1NC(=O)Cn1cc(C(F)(F)F)cc(Cl)c1=O	-0.641

Compound	z-score
COC(=O)c1[nH]c(=O)c2ccccc2c1O	-0.232
COc1ccc(C(C(=O)NC2CCCC2)N(C(=O)c2snc(-c3ccc(F)cc3)c2N)c2cccc(F)c2)cc1 (centres undefined)	-1.66
O=C(CSCc1ccc(Cl)cc1)NCc1ccc2c(c1)OCO2	0.0576
O=c1ccc2ccc(OCc3nnc(-c4ccccc4Br)o3)cc2o1	1.13
COCc1cc(C)nc(OCC(=O)N/N=C/c2ccc(OC)c(O)c2)c1C#N	0.151
COc1cccc2c(=S)c(CCC(C)=O)c(C)[nH]c12	0.214
COCCOC(=O)C1=C(C)NC(=O)CC1c1cc2c(cc1Br)OCO2 (centres undefined)	-0.00397
C/C(=N\NC(=O)C1(C)CC1(Br)Br)c1cccc(NC(=O)C(C)(C)C)c1 (centres undefined)	-0.28
Cc1ccc2nc(-c3cccc(N)c3)oc2c1	-0.271
O=C(Cc1csc(Nc2nc(=S)[nH]c3ccccc23)n1)NCc1cccc(Cl)c1	active: 6.85
COc1cc(C(c2nnnn2C2CCCC2)N2CCc3ccccc3C2)ccc1O (centres undefined)	-0.404
COC(=O)c1ccc(NC(=O)c2ccccc2NS(C)(=O)=O)cc1	-0.151
O=C(COc1ccc(C(=O)c2ccccc2)cc1)NCC(=O)Nc1ccccc1Br	-0.161
COC(=O)Cc1c(C)nc2nc[nH]n2c1=O	-0.0384
COc1ccc(/C=C/C(=O)NC2CCCCCC2)cc1S(=O)(=O)N1CCOCC1	-0.0462
CN1C(=O)/C(=C2\SC(=S)N(C(CCC(=O)O)C(=O)O)C2=O)c2ccccc21 (centres undefined)	-0.14
Cc1ccc(/C=C/C(=O)NC(=S)N2CCN(C)CC2)cc1	-0.241
O=C(Nc1nccs1)c1cnccn1	-0.96
Cc1ccc(S(=O)(=O)N2CCC(C(=O)Nc3ccc4c(c3)OCO4)CC2)cc1	-0.0915
CC1(C)CC(NC(=O)c2ccc3c(c2)OCO3)CC(C)(C)N1	-0.0195
Cc1cc(S(=O)(=O)NCC(C)C)ccc1OCC(=O)NCc1ccccn1	0.417
CN(C)c1ccc(CNn2cnnc2)cc1	-0.119

Compound	z-score
Cc1cc(NS(=O)(=O)c2ccccc2)cc(Cl)c1O	-0.424
Cc1ccc(S(=O)(=O)NC(C)(C)CSc2nnc(N)s2)cc1	-0.314
CCOC(=O)CSc1ncnc2c(C(=O)OCC)c3n(c12)CCC3	-0.147
Cc1ccccc1C(=O)NC1CCN(CC(=O)Nc2nccs2)CC1	0.51
O=C(NCc1ccco1)C1CCCCN1S(=O)(=O)c1ccc(F)cc1 (centres undefined)	-0.0967
CCOC(=O)c1c(NC(=O)c2cccs2)sc2c1CCN(C(=O)OCC)C2	-0.63
O=C(C(Cc1ccccc1)n1cccc1)N1CCN(Cc2ccccc2)CC1 (centres undefined)	-0.876
O=C(COC(=O)c1nc(Cl)ccc1Cl)c1ccc(Cl)s1	0.688
CCc1c(O)nc(SCC(=O)Nc2ccccc2C)[nH]c1=O	-0.0542
Cc1ccc(SCc2[nH]nc3c2C(C(C)C)C(C#N)=C(N)O3)cc1 (centres undefined)	0.428
Cn1c(CSc2nc3ccccc3n2C)nc2ccccc21	0.502
CC(C)c1ccccc1NC(=O)c1ccccc1NC(=O)C1CCCCC1	0.916
O=C(NCc1ccccc1)c1c[nH]c2ccc(S(=O)(=O)Nc3ccc4c(c3)OCCO4)cc2c1=O	1.23
COC(=O)c1cc(-c2ccc(OC)c(OC)c2)on1	-0.638
O=C(CSc1nnc(-c2ccco2)n1-c1ccccc1)N1CCc2ccccc21	0.00192
COc1cccc(OC)c1C(=O)NNC(=O)c1cccc(COc2ccc3c(c2)CCC3)c1	-0.245
O=C(CN1CCOCC1)Nc1ccc(Br)cn1	-0.281
Cc1[nH]n(-c2ccc(Cl)cc2)c(=O)c1/C=N/c1nnc(-c2ccccc2)s1	active: 8.81
O=C(Nc1ccc(N2CCN(C(=O)c3ccco3)CC2)c(Cl)c1)c1c(F)c(F)c(F)c(F)c1F	-0.334
Cc1ccc(OCC(=O)Nc2ccc(F)cc2)cc1C	1.18
COc1ccc2nc(SCc3ccccc3C)nc(C)c2c1	-0.26
S=C(NCc1ccccc1)NCC1COc2ccccc2O1 (centres undefined)	0.508

Compound	z-score
O=Cc1ccccc1OCCOc1ccccc1C=O	-0.52
COC(=O)c1cc(-c2c[nH]c3ccccc23)n[nH]1	0.829
S=C(Nc1ccccc1)Nc1cc(Cl)ccc1Oc1ccccc1	active: 3.43
CCCCCCn1c(O)c(/C=C2\C=NN=C2c2ccccc2)sc1=S	-0.163
Cc1ccc(N(CC(=O)Nc2ccccc2-c2ccccc2)S(=O)(=O)c2ccccc2)cc1	0.628
COc1ccc(NC(=O)c2ccc(CN3CCN(c4ccccc4)CC3)cc2)cc1OC	0.184
O=C(Nc1ccc(S(=O)(=O)Nc2nccs2)cc1)c1cc(-c2ccccc2Cl)nc2ccccc12	-0.275
CCC(=O)Nc1ccc(NC(=O)c2ccccc2Cl)nc1	-0.236
CC1CC(C)(C)NC(=S)N1CCCC(=O)N1CCN(c2ccc(F)cc2)CC1 (centres undefined)	-0.0952
CC1(C)CC(=O)c2cnc(NC(=O)c3ccco3)nc2C1	-0.0387
Cc1ccc(-c2noc(CCC(=O)NCCN3CCc4ccccc4C3)n2)cc1	0.982
COc1ccc(-c2c3c(=O)n(C)c(=O)n(C)c3cn2-c2cc(OC)ccc2OC)cc1	-1.13
CCCn1c(NC(=O)c2cccc(C)c2C)nc2ccccc21	-0.121
O=C(CN1C(=O)c2ccccc2C1=O)N1CCCCC1	-0.079
O=C1CC(c2ccccc2)CC(O)=C1C=NCC1CCCO1 (centres undefined)	-0.0504
O=C(O)CC/C(=C\c1cc([N+](=O)[O-])ccc1Cl)c1nc2ccccc2s1	-2.59
O=C(O)COc1ccc(/C=C/c2ccc3cccc([N+](=O)[O-])c3n2)cc1	-0.135
CN(C)CCNC(=O)Nc1ccc(Cl)c(Cl)c1	0.092
CCNc1nc(NCC)n2c(SCC(=O)Nc3ccc(C(F)(F)F)cc3[N+](=O)[O-])nnc2n1	-0.166
CCOc1cccc(-c2nnc(SCC(=O)Nc3cc(OC)cc(OC)c3)n2N)c1	-0.214
O=[N+]([O-])c1c(C(Cl)Cl)nn(-c2ccccc2)c1N1CCCC1	-0.549
CC(C)C(C(=O)Nc1ccc(S(=O)(=O)N2CCOCC2)cc1)N1C(=O)c2ccccc2C1=O (centres undefined)	-0.0651

Compound	z-score
COc1ccc([C@H]2[C@H](C(=O)C(C)(C)C)N3N=Cc4ccccc4C3[C@]23N=C(c2ccccc2)OC3=O)cc1OC (some centres undefined)	1.03
NS(=O)(=O)c1ccc(NC(=S)NC(=O)c2ccc(-c3ccccc3)cc2)cc1	-0.131
CCOC(=O)c1cc2sccc2n1Cc1ccc(C#N)cc1	-0.149
O=C(NNc1ccccc1)C(=O)N1CCCCC1	-0.0288
CC(c1nnc(SCC(=O)Nc2sccc2C#N)n1-c1ccc(Cl)cc1)N(C)C (centres undefined)	0.0165
Cc1ccc(-n2c(SCC3CCCCO3)nnc2-c2ccco2)cc1 (centres undefined)	-0.598
c1ccc2c(c1)oc1c(NCCN3CCOCC3)ncnc12	0.156
N#CC1=C(SCC(=O)NC2CC2)NC(=O)C(C#N)C12CCCCC2 (centres undefined)	-0.343
CCC(C)[C@H](NC(=O)NC1CCN(Cc2ccccc2)CC1)C(=O)OC (some centres undefined)	0.0464
FC(F)Oc1ccc(/C=N/c2c(-c3ccc(OC(F)F)cc3)nc3n2CCS3)cc1	-0.405
COc1ccccc1C(=O)Nc1cc2cc(Cl)ccc2oc1=O	0.0947
COc1ccc(-c2ccc(/C=C3\C(=O)N(c4ccccc4)N=C3c3ccccc3)o2)c([N+](=O)[O-])c1	-0.0771
Cc1nnc(SCC(=O)Nc2ccc(S(=O)(=O)N3CCCCC3)cc2)s1	-0.0149
CCOC(=O)CSc1nc2cc(C(=O)N3CCCC3)ccc2c(=O)n1Cc1ccccc1	-1.58
O=c1sc(N2CCN(c3ccc(F)cc3)CC2)nc2ccsc12	-0.181
COc1ccc(S(=O)(=O)N2CCOCC2)cc1NC(=O)c1cc2c(s1)CCCC2	-0.554
CCOC(=O)c1cccc(N2C(N)=NC(N)=NC2(C)C)c1	-0.556
CC(C)(C)c1ccc(C(=O)Nc2ccc(N3CCOCC3)cc2)cc1	-0.496
O=C1NC(=Nc2ccccc2)SC1Cc1cccc(Cl)c1Cl (centres undefined)	-0.205
COc1ccc(/C=N/Nc2nc3ccccc3[nH]2)cc1OC	-0.35
Cc1ccc(CSc2nnc(-c3cccs3)n2C)cc1	-0.479
